The chains are these.
B1: LINE1-full (parent)
chain: UACGUAGGUGGUUUUCCCCUGAUAGUGCUAAGGGGGCCUGGAAGUUUGGACUGGGCAGAGCUCAACACAGCGUGGCAAAGUGGCUGUGGCUAGACUGCCUCUCUGGAUUCCUCGUCACUCAGCAGGGCAUCUCUGAGAGAAAUGCC

Read counts are not given, so values of variants with three or more changes are uncertain.

In this series the parent is B1. Briefly: self-cleavage, relative activity (ratio to wild type); higher = more cleavage; in vitro, sequencing; the parent is a self-cleaving ribozyme.
With U13C A69G U81A A140G, the self-cleavage is 0.6.
In the case of U13C C84U A136G, the self-cleavage worked out at 0.03.
Turning to U13C A69U U104A A142G, the self-cleavage amounted to 0.11.
The figure for U13C U20A U39A A79G U81C is 0; for U13A A42G U46A U87A it is 0.04.
U13A G27A U39A U134C: the self-cleavage is 1.7.
Regarding U13C U23C A69G U109A, the self-cleavage is 0.35.
For the variant U13C A57U A65G A140G, the self-cleavage was 0.09.
Turning to U13C A77G U115A A117U A136G, the self-cleavage worked out at 1.76.
With U13C A24U U143C the figure was 1.17; with U13C A42G A43G, 1.43.
Regarding U13A U23A A94G U109C C116U, the self-cleavage is 0.15.
The figure for U13C A77U U119C is 1.56.
For the variant U13C A64U A92U U108C, the self-cleavage was 0.59.
On to U13A U45C A67G A79C G88A, for which the self-cleavage amounted to 0.09.
For the variant U13C A43G A107U U132C U143A, the self-cleavage worked out at 0.
U13C A117C A136G: the self-cleavage was 1.47.
For the variant U13C A43G A117U A121U A142G, the self-cleavage is 0.57.
With U13C A107G A142G the figure was 1.07; with U13C A42G A65G, 0.
With U13C A79U U104C U109C the figure was 1.41.
On to U13A U29C U85A, for which the self-cleavage was found to be 0.17.
For U13C G27A A94U, the self-cleavage stood at 0.35.
The figure for U13C U14C A59G A140G is 0.14; for U13C U26A A31G it is 1.38; for U13A C17U U104C it is 0.74.
In the case of U13C U14C U20C C76U G83C, the self-cleavage stood at 1.97.
Consider U13C A42G U47A G89U, for which the self-cleavage came out at 0.1.
With U13C A69U U130C the figure was 0; with U13C A50G A67G, 0; with U13C A31U A59G U62C U109C U130C, 0.
On to U13C A64G A92U A142U, for which the self-cleavage stood at 0.
With U13C U14C G35A U108C U130C the figure was 0.42.
Regarding U13A A50U U73C, the self-cleavage worked out at 0.73.
Take U13C C38U U62A: the self-cleavage came out at 0.07.
The figure for U13A U14A C76U U104C is 2.3; for U13C U20C A59G U119C it is 0.
With U13A U73C U96C the figure was 0; with U13C G35A U102C, 0.93; with U13A A22G A138G, 1.02.
Consider U13A U20C G27U U47C A79G U108A, for which the self-cleavage was 0.
Turning to U13C A77U U115C, the self-cleavage stood at 1.73.
For U13C A64U A129G, the self-cleavage was 0.6.
In the case of U13C A69U U100C U104C U115A, the self-cleavage was 0.
For U13A U87C U132C A138U, the self-cleavage amounted to 0.
With U13A U23C G40U A43G U100C the figure was 0.25.
With U13A A124G U134C A141G the figure was 2.3.
Consider U13A A31G U85A U102C U104C, for which the self-cleavage turned out to be 0.32.
For U13C A136G A140G, the self-cleavage was 1.88.
Take U13C U14C U62A: the self-cleavage was found to be 0.06.
Turning to U13C A42G A59U A140G A141G, the self-cleavage stood at 1.91.
For the variant U13A G58A A67U U100C, the self-cleavage worked out at 0.03.
For U13C U20A A22U A136U A140G G144C, the self-cleavage came out at 1.29.
For U13A U39A U73C A78G, the self-cleavage came out at 1.55.
In the case of U13C C68A U91C A142G, the self-cleavage came to 0.1.
U13C A77G A140U: the self-cleavage came out at 2.39.
For U13C G36C G41A A117G, the self-cleavage stood at 0.
As for U13C A42U U45G, the self-cleavage was determined as 0.39.
In the case of U13C G36C C71U A121C U130C A136G, the self-cleavage came out at 1.41.
Turning to U13C A64G A69U U73C G135A, the self-cleavage is 0.
Take U13C U20C U62C C63G A65U U73A: the self-cleavage was 0.
With U13C A43G A77G A78G U143C the figure was 1.84.
U13C A22G U26C A50U A77G A121U: the self-cleavage was determined as 0.
Regarding U13C G60A A65G U119C, the self-cleavage was found to be 0.12.
With U13C U15C A65G A129G, the self-cleavage is 0.
With U13A U85C U96C the figure was 0.28.
Turning to U13C U20G U47A A57U U62A U87C C95U, the self-cleavage worked out at 0.
Take U13C U39A A50G A77G A107G U119A: the self-cleavage was 1.15.
As for U13C A57G G75A, the self-cleavage was 0.55.
The figure for U13C U26G U45C is 1.08; for U13C G49U U73C it is 1.12.
In the case of U13A U15G A117G A141G, the self-cleavage came to 1.24.
With U13A A59U A77U the figure was 0.47; with U13A A31C U62C U115C, 0; with U13C G27U U73G G89A A140G, 0.09.
Take U13C A59G A124G: the self-cleavage was found to be 0.
On to U13C G55C U81G, for which the self-cleavage amounted to 0.09.
As to U13A A31G U45C, the self-cleavage came to 0.57.
With U13C A22G A64U the figure was 0.61; with U13C A22C U29C A67C, 0; with U13C G49U U96A, 0.06.
Turning to U13C A59U U108C, the self-cleavage was 1.44.
For the variant U13A U15C G49A A65U U81A, the self-cleavage stood at 0.17.
Regarding U13C G58U A129G, the self-cleavage came out at 0.11.
U13A G35U U87C U96C: the self-cleavage worked out at 0.09.
Take U13C A22C A69U A136U: the self-cleavage was 0.31.
On to U13C U15A U39A, for which the self-cleavage worked out at 0.53.
Take U13C A129C A136G: the self-cleavage was determined as 2.04.
For U13A U26A U52G A67G A77G, the self-cleavage was determined as 0.
Take U13C A129G A141G: the self-cleavage came out at 1.15.
As to U13C A65U U104C A129U G137A, the self-cleavage was found to be 0.39.
Take U13C C18A U47C A59G A69G A94U A142G: the self-cleavage was determined as 0.77.
Take U13A U81A U104A: the self-cleavage was determined as 1.35.
On to U13C A42U U73C A94U, for which the self-cleavage is 0.88.
For U13C U14C U47C U87A, the self-cleavage is 0.53.
Take U13C G89A A121G: the self-cleavage was found to be 0.08.
Turning to U13C U15A G25A, the self-cleavage was 1.22.
With U13C A57U G72U A136G, the self-cleavage is 0.11.
Consider U13A U14A A59C U102A, for which the self-cleavage was 0.72.
On to U13C U14C U87G A124U A136G, for which the self-cleavage turned out to be 1.15.
As to U13C A24G A142G, the self-cleavage is 0.56.
With U13A A64G A140G, the self-cleavage was found to be 0.38.
U13C A50G A136G: the self-cleavage worked out at 0.77.
With U13C U29C U47A U73A U85C U87C A92U C116A, the self-cleavage came out at 0.24.
As for U13C A57U A78G U108C A140G, the self-cleavage stood at 0.23.
For the variant U13C A77U U130C U134A A140G, the self-cleavage was 1.47.
U13C G32A U85A: the self-cleavage was 0.25.
In the case of U13C C51U U73A A77G, the self-cleavage stood at 2.08.
With U13C G36U U100C U102C C103U the figure was 1.54; with U13C C37U U119C G139A, 1.52.
With U13C A59G A117G the figure was 0; with U13C G88C A140G, 0.08; with U13C U29A U47C U96G, 0.71.
Regarding U13A U45A G48A U91A, the self-cleavage was 0.25.
As for U13C G27A G34U A57G U73A U115C U130C, the self-cleavage is 1.29.
Regarding U13A A22G U39C A43G G74A G75C, the self-cleavage amounted to 0.43.
As for U13C U23C G40A A57G U100C U104A, the self-cleavage was 1.23.
With U13C U14C A24U U62C G106A, the self-cleavage came to 0.1.
For the variant U13A A77G U100C, the self-cleavage worked out at 1.77.
Regarding U13A U20C U47A U62C U100C U102C, the self-cleavage was determined as 0.
Regarding U13C G25A A43G U81A, the self-cleavage was found to be 2.09.
As for U13C C37A U73C A92G A107G, the self-cleavage is 0.18.
With U13C A43G G74A A78G the figure was 0.93; with U13C G35A A59G U73C U119A, 0.2; with U13C A42U U87A, 0.1.
The figure for U13C A67G A107G U115G G126A A138U is 0; for U13C A42G U47C G58A G86A it is 0.12; for U13C A67G G105A it is 0.47.
On to U13C G35A U39A, for which the self-cleavage was 1.32.
On to U13C G40A U47C A57U C133A U134C, for which the self-cleavage was found to be 0.19.
Take U13C A107G A136G: the self-cleavage is 1.53.
For the variant U13C U15C A65U A94C, the self-cleavage turned out to be 0.09.
Take U13C A22G U39C U73G A77G G93A: the self-cleavage turned out to be 0.18.
For U13C A31U U46C U104C U115G, the self-cleavage came to 2.63.
As to U13C A43G U96C, the self-cleavage amounted to 0.
The figure for U13C A50U A69G is 0.69; for U13C A42G C131U it is 1.55; for U13C C56G U87A A94G U100C it is 0.41.
Regarding U13C G33A A77G, the self-cleavage came out at 2.22.
For U13C A138G A140G, the self-cleavage came to 1.31.
On to U13C U14C G54A U96A U104C U115A, for which the self-cleavage came to 0.21.
Regarding U13C C71U U100A, the self-cleavage came out at 0.11.
Turning to U13C C51U A117C, the self-cleavage stood at 1.42.
For the variant U13A G33U A79G, the self-cleavage is 1.18.
Take U13C C28U U47A A67G: the self-cleavage came to 0.18.
With U13A A43G A138G the figure was 0.77.
Take U13C C19U A65U: the self-cleavage worked out at 0.26.
Turning to U13C A30G A136G, the self-cleavage amounted to 1.26.
With U13C A65G U109C C145G, the self-cleavage was found to be 0.
Consider U13C A57G G75U U119C U130C G139A, for which the self-cleavage came to 0.25.
With U13C C90U U96C A117U A142G the figure was 0.04; with U13C A79G U109A, 1.1; with U13C A79G U109G, 0.57.
U13C U15C A64G U85C: the self-cleavage was 0.
With U13C A59U G88C U109A the figure was 0.07; with U13A A22G A30U A57G A124U, 0.65; with U13C U23C A79U, 1.3.
With U13C A92U A138G, the self-cleavage stood at 2.3.
With U13C A59U A64C U81A A124C C145U the figure was 0.69.
Regarding U13C U29C A140U, the self-cleavage was found to be 1.02.
As to U13A U26A G74A A140G, the self-cleavage was 0.16.
On to U13C A78G A94G, for which the self-cleavage came to 0.39.
Regarding U13C A22G A42G A79G G93U, the self-cleavage stood at 0.34.
The figure for U13C A67G A107G C118U is 0.73; for U13A A43U U62A A78G A79U it is 0.
As for U13C A79G G88A, the self-cleavage stood at 0.12.
For the variant U13C U26C A30G U130A U132C, the self-cleavage turned out to be 1.84.

For the origin of these results see the RNAGym collection of RNA variant scans (doi:10.7554/elife.90254).
